Results are given in words; binding and its absence hold for the method and conditions named. Binding seen in cells or lysates may run through a third protein. Some entries that bind do so weakly or less than the wild type.
How the values were obtained:
[1] = molecular target: endogenous Mbd3 (mouse (endogenous in NPCs)) (UniProt Q9Z2D8); assay: co-IP; endogenous proteins in NPC lysates (undifferentiated NPCs in Fig 2E); anti-Mbd3, anti-Smek2 or control IgG; immunoblot
[2] = molecular target: HA-tagged Mbd3, full length (mouse) (UniProt Q9Z2D8); assay: co-IP; HEK293T cells transfected with tagged Smek and Mbd3 constructs; IP buffer with 130 mM NaCl, 0.5% Triton X-100, 0.5% NP-40, pH 7.4; antibody overnight at 4°C, Protein A/G beads, immunoblot
GST-Mbd3 ΔN92 (mouse) = GST-Mbd3 ΔN92 (mouse) (UniProt Q9Z2D8); assay: pull-down; GST or GST-Mbd3 proteins on glutathione magnetic beads incubated with lysate of HEK293T cells transfected with Flag-tagged Smek2; immunoblot with Smek2 and Mbd3 antibodies; only the target purified
GST-Mbd3 (mouse) = GST-Mbd3 (mouse) (UniProt Q9Z2D8); assay: as above
[3] = molecular target: endogenous Mbd3 (mouse (endogenous in NPCs)) (UniProt Q9Z2D8); assay: condition: only NPCs under differentiation conditions; co-IP; endogenous proteins in lysates of differentiated NPCs; anti-Mbd3, anti-Smek2 or control IgG; immunoblot

By UniProt entry, the sequences of proteins in these tests, tags left out. Where a name states a change or a piece, a line headed by the entry shows the natural chain unless it says otherwise. Residues count along the entry.
UniProt Q9Z2D8: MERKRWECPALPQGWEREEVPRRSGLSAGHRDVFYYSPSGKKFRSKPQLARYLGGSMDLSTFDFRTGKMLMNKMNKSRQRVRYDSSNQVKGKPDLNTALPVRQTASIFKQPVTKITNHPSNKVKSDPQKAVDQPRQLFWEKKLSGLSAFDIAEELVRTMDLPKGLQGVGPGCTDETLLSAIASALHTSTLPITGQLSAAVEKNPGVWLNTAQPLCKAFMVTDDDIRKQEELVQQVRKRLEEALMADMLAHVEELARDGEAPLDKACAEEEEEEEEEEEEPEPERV
GST-Mbd3 ΔN92: residues 93-285 of Q9Z2D8
UniProt Q8K4B0: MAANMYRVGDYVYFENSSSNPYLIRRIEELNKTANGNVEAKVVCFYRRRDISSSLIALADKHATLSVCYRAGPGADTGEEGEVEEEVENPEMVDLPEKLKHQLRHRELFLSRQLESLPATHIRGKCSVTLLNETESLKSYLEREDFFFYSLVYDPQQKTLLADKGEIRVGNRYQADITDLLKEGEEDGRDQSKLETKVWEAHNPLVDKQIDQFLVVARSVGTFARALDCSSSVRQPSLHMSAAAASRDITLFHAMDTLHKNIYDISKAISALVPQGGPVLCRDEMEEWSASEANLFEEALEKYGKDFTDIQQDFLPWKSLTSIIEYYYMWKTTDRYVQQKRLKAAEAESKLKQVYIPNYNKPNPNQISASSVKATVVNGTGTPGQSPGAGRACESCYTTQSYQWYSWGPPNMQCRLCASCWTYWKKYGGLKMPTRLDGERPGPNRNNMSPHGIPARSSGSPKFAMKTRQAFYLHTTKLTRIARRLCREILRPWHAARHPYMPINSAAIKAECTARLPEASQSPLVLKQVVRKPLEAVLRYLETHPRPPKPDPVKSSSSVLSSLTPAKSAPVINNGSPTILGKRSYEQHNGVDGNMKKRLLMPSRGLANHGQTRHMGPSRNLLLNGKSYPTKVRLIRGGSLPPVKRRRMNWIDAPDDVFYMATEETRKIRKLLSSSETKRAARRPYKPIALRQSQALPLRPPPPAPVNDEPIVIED
UniProt Q6P2K6: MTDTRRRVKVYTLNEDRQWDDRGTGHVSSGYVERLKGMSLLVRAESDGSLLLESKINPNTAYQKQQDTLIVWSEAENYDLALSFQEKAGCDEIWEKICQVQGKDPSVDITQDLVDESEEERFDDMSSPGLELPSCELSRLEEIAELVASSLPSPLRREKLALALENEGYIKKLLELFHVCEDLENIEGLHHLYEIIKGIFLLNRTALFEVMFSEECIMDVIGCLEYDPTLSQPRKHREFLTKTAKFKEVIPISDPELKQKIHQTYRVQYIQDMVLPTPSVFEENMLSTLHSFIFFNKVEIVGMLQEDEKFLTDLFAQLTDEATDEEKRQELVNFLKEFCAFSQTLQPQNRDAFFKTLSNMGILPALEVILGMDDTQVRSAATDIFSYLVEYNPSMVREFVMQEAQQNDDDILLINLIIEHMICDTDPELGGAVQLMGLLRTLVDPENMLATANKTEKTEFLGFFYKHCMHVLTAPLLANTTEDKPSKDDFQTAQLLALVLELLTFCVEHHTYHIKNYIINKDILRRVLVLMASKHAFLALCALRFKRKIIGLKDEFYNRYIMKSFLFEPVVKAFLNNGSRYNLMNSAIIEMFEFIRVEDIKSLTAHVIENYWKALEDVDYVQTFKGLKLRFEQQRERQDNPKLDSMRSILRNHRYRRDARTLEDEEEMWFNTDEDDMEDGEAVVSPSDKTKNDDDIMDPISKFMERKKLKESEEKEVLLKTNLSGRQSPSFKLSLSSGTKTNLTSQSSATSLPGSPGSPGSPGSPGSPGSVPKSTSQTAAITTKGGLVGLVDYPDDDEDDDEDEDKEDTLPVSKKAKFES
UniProt Q922R5: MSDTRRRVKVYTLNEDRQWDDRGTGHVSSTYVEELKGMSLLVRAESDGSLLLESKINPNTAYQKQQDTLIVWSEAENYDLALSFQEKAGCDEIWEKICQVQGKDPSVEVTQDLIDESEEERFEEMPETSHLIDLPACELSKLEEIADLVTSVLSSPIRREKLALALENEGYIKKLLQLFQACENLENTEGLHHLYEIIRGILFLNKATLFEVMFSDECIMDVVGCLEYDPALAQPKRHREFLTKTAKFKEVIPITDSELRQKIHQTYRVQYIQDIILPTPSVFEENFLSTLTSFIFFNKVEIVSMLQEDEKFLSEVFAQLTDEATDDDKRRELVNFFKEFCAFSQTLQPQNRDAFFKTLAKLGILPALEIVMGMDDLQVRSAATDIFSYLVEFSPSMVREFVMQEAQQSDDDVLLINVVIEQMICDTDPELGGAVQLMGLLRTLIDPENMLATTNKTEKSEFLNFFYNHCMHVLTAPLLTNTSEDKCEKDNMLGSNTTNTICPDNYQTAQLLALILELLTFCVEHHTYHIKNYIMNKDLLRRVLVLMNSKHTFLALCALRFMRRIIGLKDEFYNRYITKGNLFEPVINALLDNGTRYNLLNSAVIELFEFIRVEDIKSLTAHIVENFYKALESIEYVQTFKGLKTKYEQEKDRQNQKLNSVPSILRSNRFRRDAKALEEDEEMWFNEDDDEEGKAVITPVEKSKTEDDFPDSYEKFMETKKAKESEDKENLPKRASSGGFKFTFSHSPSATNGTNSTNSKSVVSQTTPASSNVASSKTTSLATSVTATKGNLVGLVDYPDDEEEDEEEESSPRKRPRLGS
UniProt O09106: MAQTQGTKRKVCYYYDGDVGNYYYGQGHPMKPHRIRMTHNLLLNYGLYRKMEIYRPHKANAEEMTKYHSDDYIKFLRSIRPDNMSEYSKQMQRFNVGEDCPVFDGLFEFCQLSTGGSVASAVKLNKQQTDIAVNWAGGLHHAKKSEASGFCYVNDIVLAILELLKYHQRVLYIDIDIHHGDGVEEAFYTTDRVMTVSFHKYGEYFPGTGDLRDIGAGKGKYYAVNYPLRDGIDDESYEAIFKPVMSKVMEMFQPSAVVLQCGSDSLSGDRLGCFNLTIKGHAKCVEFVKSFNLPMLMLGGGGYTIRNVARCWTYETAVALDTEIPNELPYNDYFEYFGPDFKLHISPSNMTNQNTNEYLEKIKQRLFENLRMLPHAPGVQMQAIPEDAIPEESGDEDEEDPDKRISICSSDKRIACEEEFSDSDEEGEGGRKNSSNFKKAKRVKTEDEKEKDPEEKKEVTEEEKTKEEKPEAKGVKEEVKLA

Substance | binding [1] | binding [2] | other results
MTA1 (from UniProt Q8K4B0 1-715) | binds | – | –
Flag-tagged Smek1, full length (from UniProt Q6P2K6 1-820) | – | binds | –
Flag-tagged Smek2 (from UniProt Q922R5 1-820) | – | binds | binding (GST-Mbd3 ΔN92 (mouse)): no binding; binding (GST-Mbd3 (mouse)): binds
HDAC1 (from UniProt O09106 1-482) | binds | – | –
endogenous Smek2 (from UniProt Q922R5 1-820) | binds | – | binding [3]: no binding
